Data: article PMC2752191
These are yes or no findings as the source states them, for the method shown. For part of these data: Binding seen in cells or lysates may run through a third protein. Some results given as binding are weak or reduced against the parent protein; the word gives no strength. For part of these data: Sequences can lack the tags named with a protein.

Protein sequences, listed by entry. Tags and fused reporters are not part of them. Lines headed by an entry give the natural chain unless they say otherwise; changes in a name come on top.
UniProt Q14457: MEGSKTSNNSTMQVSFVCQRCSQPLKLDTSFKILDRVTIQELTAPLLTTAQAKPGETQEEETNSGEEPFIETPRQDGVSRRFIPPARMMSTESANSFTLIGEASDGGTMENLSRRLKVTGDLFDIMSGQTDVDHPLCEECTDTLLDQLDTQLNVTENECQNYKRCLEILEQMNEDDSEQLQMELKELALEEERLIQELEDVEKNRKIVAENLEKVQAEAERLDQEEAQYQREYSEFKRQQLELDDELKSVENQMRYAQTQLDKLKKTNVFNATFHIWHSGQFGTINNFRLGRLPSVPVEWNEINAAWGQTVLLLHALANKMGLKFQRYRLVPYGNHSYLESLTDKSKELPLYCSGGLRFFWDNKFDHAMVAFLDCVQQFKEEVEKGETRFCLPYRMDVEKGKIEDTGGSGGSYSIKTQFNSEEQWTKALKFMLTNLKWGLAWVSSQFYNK

Columns and labels:
[1] = biological target: HA-tagged vBcl-2 ΔBH2 (murine γ-herpesvirus 68 (γHV68)) (UniProt P89884); test: co-IP; 293T cells transfected with HA-vBcl-2 constructs; immunoprecipitation of HA-vBcl-2, immunoblot of endogenous Beclin1; 1% NP40 lysis buffer, 4°C
[2] = biological target: HA-tagged vBcl-2 ΔTM (murine γ-herpesvirus 68 (γHV68)) (UniProt P89884); test: as above
[3] = biological target: HA-tagged vBcl-2 Δα1 (murine γ-herpesvirus 68 (γHV68)) (UniProt P89884); test: as above
[4] = biological target: HA-tagged vBcl-2 Δα7 (murine γ-herpesvirus 68 (γHV68)) (UniProt P89884); test: as above
[5] = biological target: T1, HA-tagged wild-type vBcl-2 of γHV68 (murine γ-herpesvirus 68 (γHV68)) (UniProt P89884); test: as above
T1 sequence: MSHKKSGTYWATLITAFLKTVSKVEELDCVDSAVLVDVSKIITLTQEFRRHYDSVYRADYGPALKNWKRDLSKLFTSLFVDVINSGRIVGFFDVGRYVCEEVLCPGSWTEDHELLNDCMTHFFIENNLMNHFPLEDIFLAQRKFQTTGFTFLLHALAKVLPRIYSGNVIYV

[6] = biological target: HA-tagged vBcl-2 ΔBH2 (murine γ-herpesvirus 68 (γHV68)) (UniProt P89884); test: co-IP; 293T cells transfected with HA-vBcl-2 (WT or mutant) and V5-tagged Beclin1; immunoprecipitation of HA-vBcl-2, immunoblot of V5-Beclin1; 1% NP40 lysis buffer, 4°C
[7] = biological target: HA-tagged vBcl-2 ΔTM (murine γ-herpesvirus 68 (γHV68)) (UniProt P89884); test: as above
[8] = biological target: HA-tagged vBcl-2 Δα1 (murine γ-herpesvirus 68 (γHV68)) (UniProt P89884); test: as above
[9] = biological target: HA-tagged vBcl-2 Δα7 (murine γ-herpesvirus 68 (γHV68)) (UniProt P89884); test: as above
[10] = biological target: T1, HA-tagged wild-type vBcl-2 of γHV68 (murine γ-herpesvirus 68 (γHV68)); test: as above
[11] = biological target: vBcl-2 with a deletion of the BH2 domain only, in pGBKT7 (yeast two-hybrid) (murine γ-herpesvirus 68 (γHV68)) (UniProt P89884); test: two-hybrid; GAL4-based; yeast AH109 expressing the Beclin1 BH3-like domain (88-150) fused to the Gal4 activation domain (pGADT7), transformed with pGBKT7 plasmids of vBcl-2 and its mutants; α-galactosidase activity
[12] = biological target: T2, wild-type vBcl-2 in pGBKT7 (yeast two-hybrid) (murine γ-herpesvirus 68 (γHV68)) (UniProt P89884); test: as above
T2 sequence: T1 sequence

endogenous Beclin1 of 293T cells (from UniProt Q14457 1-450)
binding [1]: binds | binding [2]: binds | binding [3]: no binding | binding [4]: binds | binding [5]: binds

V5-tagged Beclin1 (from UniProt Q14457 1-450)
binding [6]: binds | binding [7]: binds | binding [8]: no binding | binding [9]: binds | binding [10]: binds

BH3-like domain (residues 88-150) of Beclin1 fused to the Gal4 activation domain (from UniProt Q14457 88-150) (domain or fragment)
binding [11]: binds | binding [12]: binds
